Screen size: about 310,000 compounds; about 2,200 (0.71%) showed an effect of 50% or more. The effect is printed as a negative number. The list shows a part of the results.
Target: human ether-à-go-go-related gene (hERG) potassium channel (human, UniProt Q12809)
Assay: primary screen, population patch clamp on CHO cells stably expressing hERG

human ether-à-go-go-related gene (hERG) potassium channel, sequence (Q12809 whole entry, looked up): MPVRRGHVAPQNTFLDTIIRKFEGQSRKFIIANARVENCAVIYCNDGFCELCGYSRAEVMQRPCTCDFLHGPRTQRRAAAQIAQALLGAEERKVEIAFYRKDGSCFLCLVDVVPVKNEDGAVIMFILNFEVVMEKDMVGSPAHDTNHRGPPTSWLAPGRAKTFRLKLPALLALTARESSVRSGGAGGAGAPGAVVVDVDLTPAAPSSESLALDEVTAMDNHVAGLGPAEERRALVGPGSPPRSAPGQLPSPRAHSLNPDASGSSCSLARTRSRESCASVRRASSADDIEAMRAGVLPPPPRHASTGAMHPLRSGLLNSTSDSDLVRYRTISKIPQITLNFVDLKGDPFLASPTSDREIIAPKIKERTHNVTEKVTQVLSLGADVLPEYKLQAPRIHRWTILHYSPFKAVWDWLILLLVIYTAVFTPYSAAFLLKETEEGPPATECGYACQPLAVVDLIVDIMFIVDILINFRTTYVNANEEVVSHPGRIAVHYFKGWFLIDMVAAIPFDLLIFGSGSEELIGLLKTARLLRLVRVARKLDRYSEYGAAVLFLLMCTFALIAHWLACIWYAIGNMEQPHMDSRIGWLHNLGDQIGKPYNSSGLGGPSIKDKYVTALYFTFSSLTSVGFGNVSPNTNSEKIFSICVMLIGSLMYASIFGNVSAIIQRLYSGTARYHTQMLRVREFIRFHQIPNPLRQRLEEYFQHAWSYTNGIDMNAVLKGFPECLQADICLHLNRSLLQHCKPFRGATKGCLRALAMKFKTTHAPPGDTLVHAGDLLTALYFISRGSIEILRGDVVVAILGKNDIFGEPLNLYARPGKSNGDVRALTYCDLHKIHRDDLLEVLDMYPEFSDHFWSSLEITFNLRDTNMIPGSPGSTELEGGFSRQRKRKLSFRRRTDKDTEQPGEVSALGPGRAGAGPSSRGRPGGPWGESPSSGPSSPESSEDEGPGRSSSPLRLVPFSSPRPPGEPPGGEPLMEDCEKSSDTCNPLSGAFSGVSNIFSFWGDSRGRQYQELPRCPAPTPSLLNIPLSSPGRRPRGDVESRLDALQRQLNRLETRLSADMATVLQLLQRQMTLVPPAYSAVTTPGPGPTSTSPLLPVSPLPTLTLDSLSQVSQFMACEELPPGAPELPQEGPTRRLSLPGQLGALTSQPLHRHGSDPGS

First: CCOc1ccc2nc(NC(=O)CS(=O)(=O)c3ccccc3)sc2c1
Second: Cc1ccc2nc(NC(=O)c3ccccc3F)sc2c1
The “hERG current change (%, negative = inhibition) at 1uM” value of the first is lower: 11.1% for the first, 17% for the second.

First: CC(C)[C@H](NC(=O)c1ccccc1)C(=O)OCC(=O)NCCC1=CCCCC1
Second: Cn1c(CNC(=O)C(Cc2ccccc2)NC(=O)c2ccccc2)cc(=O)n(C)c1=O (centres unmarked)
The “hERG current change (%, negative = inhibition) at 1uM” value of the first is higher: 15.6% for the first, 3.09% for the second.

Going from `Cn1cc(S(=O)(=O)N2CCc3ccccc32)cc1C(=O)NC(C)(C)C` to `COC(=O)c1cc(S(=O)(=O)N2CCN(c3cccc(C)c3C)CC2)c[nH]1`, the “hERG current change (%, negative = inhibition) at 1uM” value rises from 7.25% to 12.2%.

First: CC1=C(C(=O)OCC2CCCCC2)C(c2ccc(F)cc2)NC(=O)N1 (centres unmarked)
Second: NC(=O)COC(=O)c1ccc(S(=O)(=O)N2CCCCCC2)cc1
The “hERG current change (%, negative = inhibition) at 1uM” value of the first is higher: 15.6% for the first, 11.1% for the second.

First: COc1ccc(C2=[N+](C)CCn3cccc32)c(OC)c1.[I-]
Second: COc1cccc(OC)c1NC(=O)C1CCCN1C(=O)NCc1ccccc1 (centres unmarked)
The “hERG current change (%, negative = inhibition) at 1uM” value of the first is higher: 8.78% for the first, 3.69% for the second.

Compared with `CCOc1ccc2c(c1)C(N(CCN1CCOCC1)C(=O)Nc1ccccc1)CC(C)(C)O2` (centres unmarked), `CCN1CCCc2cc(CN(CCN3CCOCC3)C(=S)Nc3ccc(OC)c(OC)c3)ccc21` is higher in “hERG current change (%, negative = inhibition) at 1uM” value: 7.9% for the first, 8.39% for the second.

First: Cc1ccc(-c2nnn(CC(=O)NC3CC4CCC3C4)n2)cc1 (centres unmarked)
Second: CC(=O)Nc1ccc(NC(=O)CSc2nnc(C3CC3)n2-c2ccccc2)cc1
The “hERG current change (%, negative = inhibition) at 1uM” value of the first is higher: 4.49% for the first, 2.39% for the second.

Compared with `CC(C)(C)c1ccc(OCC(=O)NCc2ccco2)c(Br)c1`, `CC(C)(C)c1ccc(OC(=O)Nc2ccc(O)c(C(=O)O)c2)cc1` is higher in “hERG current change (%, negative = inhibition) at 1uM” value: 2.18% for the first, 10.1% for the second.

First: Cc1cccc(NNC(=O)c2c(F)cccc2Cl)c1
Second: Nc1c(C(=O)Nc2ccccc2Cl)nnn1-c1ccc2c(c1)OCCO2
The “hERG current change (%, negative = inhibition) at 1uM” value of the first is lower: 9.88% for the first, 16.1% for the second.

Going from `O=C1N(Nc2ccccc2)C(c2ccc(Br)cc2)C12CCCCC2` (centres unmarked) to `O=C(NCc1ccccc1)Nc1cccn(Cc2cccc(F)c2)c1=O`, the “hERG current change (%, negative = inhibition) at 1uM” value falls from 15.7% to 11.8%.

First: COCCN(C(=O)CSc1nc(-c2ccccc2)cn1N)c1c(N)n(Cc2ccccc2)c(=O)[nH]c1=O
Second: Cc1ccnc(NC(=O)CCC(=O)N(CC(=O)NCc2ccccc2)Cc2ccc(F)cc2)c1
The “hERG current change (%, negative = inhibition) at 1uM” value of the first is higher: 3.04% for the first, -4.64% for the second.

Going from `Cc1cc(Nc2ccc(N3CCOCC3)cc2)c2cccc(C)c2n1.Cl` to `COc1ccc(CN(C)C(=O)c2cccc(S(=O)(=O)N3CCN(c4ccccc4)CC3)c2)c(OC)c1OC`, the “hERG current change (%, negative = inhibition) at 1uM” value rises from -17.8% to 10.8%.

Compared with `COc1ccc(Cl)cc1NC(=O)CS(=O)(=O)c1cccc2nsnc12`, `COc1ccc(CCNC(=O)COC(=O)COc2ccc(Cl)cc2)cc1OC` is higher in “hERG current change (%, negative = inhibition) at 1uM” value: -0.237% for the first, 12.8% for the second.

First: COc1ccc(OC(=O)Cc2cccc3ccccc23)cc1
Second: CCOc1ccc(C(=O)COC(=O)c2nn(CC)c(=O)c3ccccc23)cc1
The “hERG current change (%, negative = inhibition) at 1uM” value of the first is higher: 13.2% for the first, -5.23% for the second.

First: Cc1cc(C(=O)N/N=C/c2cccn2C)n[nH]1
Second: Cn1c(=O)c2c(ncn2CC(=O)N/N=C/c2c[nH]c3ccccc23)n(C)c1=O
The “hERG current change (%, negative = inhibition) at 1uM” value of the first is lower: -1.85% for the first, 10.2% for the second.

Going from `CC(C)OC(=O)c1nnc(Cc2ccc(F)cc2)o1` to `CC(C)(C)OC(=O)N[C@@H](Cc1ccccc1)c1nnc(S(=O)(=O)Cc2cccc(F)c2)o1`, the “hERG current change (%, negative = inhibition) at 1uM” value rises from 5.64% to 12.4%.

First: CCCCCCCC(=O)NC1=NC(=O)C(C)(C)S1
Second: CCCCCCc1c(C)[nH]c2nc3ccccc3n2c1=O
The “hERG current change (%, negative = inhibition) at 1uM” value of the first is higher: 13.4% for the first, 11.6% for the second.

Compared with `O=C(O)c1ccccc1-c1nc2ccccc2[nH]1`, `CCCc1nn(C)c2c(=O)[nH]c(-c3ccccc3OCC)nc12` is lower in “hERG current change (%, negative = inhibition) at 1uM” value: 15.2% for the first, 14.3% for the second.

First: CCOc1ccc(C(=O)OC(C)CN2CCN(C)CC2)cc1.Cl (centres unmarked)
Second: CC(=O)Nc1ccc(C(=O)NCC2(N3CCCCC3)CCCCC2)cc1
The “hERG current change (%, negative = inhibition) at 1uM” value of the first is higher: 1.94% for the first, -14.7% for the second.

Compared with `CC(=O)Nc1ccc(C)c([N+](=O)[O-])c1`, `Cc1ccc(NC(=O)c2nc[nH]c2C(=O)NCCCCCNC(=O)OC(C)(C)C)cc1` is lower in “hERG current change (%, negative = inhibition) at 1uM” value: 13.3% for the first, 10.7% for the second.

Going from `Cc1nnc(SCC(=O)Nc2cccnc2Cl)s1` to `CCc1ccc(Nc2nnc(SCC(=O)Nc3cccnc3Cl)s2)cc1`, the “hERG current change (%, negative = inhibition) at 1uM” value rises from -1.11% to 3.22%.

Going from `C[C@]12CCC(OC(=O)CCC(=O)O)CC1=CCC1C2CC[C@]2(C)C(=O)CCC12` (some centres unmarked) to `CCOC(=O)c1c(CSc2ccccc2)n(C)c2cc(Br)c(O)c(CN(C)C)c12`, the “hERG current change (%, negative = inhibition) at 1uM” value falls from 13.6% to -3.17%.

Source: paper PMC4336329 (PLoS ONE, 2015)
